# “And” between values parts separate entries of the source, which are not always exact repeats. Equal entries are not always repeated. In all, about 48,000 compounds went through this assay and about 1,200 (2.5%) were called active. Inconclusive results (about 2%) are left out.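 Rule for the calls: active = activation of at least 60% and not above a set upper limit (about 1 call in 100 departs from these limits); inconclusive = activation of 40% to 60%, or above that upper limit; inactive = activation under 40%.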 This is one part of the list.
# Molecular target: Probable G-protein coupled receptor 32 (Homo sapiens) (UniProt O75388)
# Assay: qHTS for Agonists of Human Resolvin D1 Receptor DRV1; note: 0% is about no effect
# Conditions: CHO-K1 GPR32 beta-arrestin PathHunter luminescence, 90 min; at 76.9 µM; hits give high values; zero percent set by DMSO-only wells
# Summary of the method: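 PathHunter enzyme-fragment complementation, CHO-K1 GPR32 stable line; 2,500 cells/well, overnight attach; cpd 90 min 37 °C 5% CO2; detection reagent 1 h RT; chemiluminescence. DMSO = EC0.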
# UniProt O75388, sequence (O75388 whole entry, looked up): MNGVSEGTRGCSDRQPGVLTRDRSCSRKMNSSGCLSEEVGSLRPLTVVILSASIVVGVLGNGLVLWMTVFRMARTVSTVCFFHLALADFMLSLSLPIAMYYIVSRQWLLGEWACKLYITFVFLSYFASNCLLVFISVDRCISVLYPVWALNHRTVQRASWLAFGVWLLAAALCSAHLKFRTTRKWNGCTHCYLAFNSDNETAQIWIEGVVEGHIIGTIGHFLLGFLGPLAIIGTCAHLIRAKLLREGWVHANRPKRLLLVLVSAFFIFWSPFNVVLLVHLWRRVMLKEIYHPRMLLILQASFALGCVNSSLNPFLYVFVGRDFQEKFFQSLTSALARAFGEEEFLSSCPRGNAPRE
row,SMILES,activation
1,CCc1ccccc1NC(=O)CCn1cccn1,inactive: -5.53%
2,Cc1ccc(CSc2nc3ccccc3c3nc(CCn4c(C)nc5ccccc54)nn23)cc1,inactive: -9.28%
3,CCn1nc(C(=O)O)c(=O)c2cc3c(cc21)OCO3,inactive: 0.648% and inactive: -1.67%
4,CCCNC(=O)CN1C(=O)COc2ccc(S(=O)(=O)N3CCCCCC3)cc21,inactive: -5.61%
5,COc1cccc(NC(=O)C(C)n2c(=O)cc(C(F)(F)F)c3c(C)nn(C)c32)c1 (stereo unspecified),inactive: 13.7%
6,Cc1ccc(-c2nnc(SCc3ccccc3)o2)cc1,inactive: -18.8%
7,O=C(NCc1cccc(Br)c1)C1CCCCN1S(=O)(=O)c1ccc(F)cc1 (stereo unspecified),inactive: -17%
8,CC(C)Oc1ccc(CNC(=O)C(C)n2ccc3cc(S(=O)(=O)N4CCCCCC4)ccc32)cc1 (stereo unspecified),inactive: 1.79%
9,CC1CCN(S(=O)(=O)c2ccc3c(c2)N(C)C(=O)CC(=O)N3C)CC1,inactive: 30.2%
10,CCc1ccc(CNC(=O)CN2C(=O)C3CCCCN3c3ccc(C(=O)N4CCCC4)cc32)cc1 (stereo unspecified),inactive: -26.9%
11,COc1ccc(OCc2nc3ccccc3n2Cc2ccc(C(C)(C)C)cc2)cc1,inactive: -8.05%
12,CCc1ccccc1NC(=O)Cn1c(=O)n(C(C)C)c(=O)c2oc3ccccc3c21,inactive: -11.2%
13,CCOc1ccccc1NC(=O)Cn1c(=O)nc(-c2ccccc2F)c2cc(Cl)ccc21,inactive: 5.42%
14,COc1ccccc1NC(=O)c1cc2c(-c3ccccc3)nn(-c3ccccc3)c2s1,inactive: 1.05%
15,COc1ccc(S(=O)(=O)Nc2cccc(-c3ccc(N4CCCC4)nn3)c2)cc1F,inactive: -5.95%
16,CC1=C(C(N)=O)C(c2ccc(C)cc2)n2nc(SCc3ccccc3)nc2N1 (stereo unspecified),inactive: -4.23%
17,COc1cc2c(cc1OC)CN(C(=O)[C@H](C)N[C@@H](CCc1ccccc1)C(=O)O)[C@H](C(=O)O)C2,inactive: -6.22%
18,CCN1CCN(CCCNC(=O)Cn2nc(C)n3c(cc4c(OC)cccc43)c2=O)CC1,inactive: 0.58%
19,COc1ccccc1-c1nn(CCC(=O)Nc2ccc(C)cc2)c2nc(C)cc(C)c12,inactive: 2.49%
20,Cc1ccccc1NC(=O)CSc1ccc(-c2ccccn2)nn1,inactive: -9.11%
21,O=C(NCc1ccccc1Cl)C1=Cc2cc(Br)ccc2OC1,inactive: -18.4%
22,CC(C)Oc1ccc(CNC(=O)c2cnc3sc(N4CCCC4)nn3c2=O)cc1,inactive: -5.16%

row,SMILES,activation
1,CCOC(=O)NNC(=O)C1CCC(C)CC1 (stereo unspecified),inactive: -2.31%
2,Cc1oc2c(c1C(=O)NCc1ccccc1F)C1=NCCN1C=N2,inactive: -9.31%
3,O=C(NCC(c1ccc2c(c1)OCO2)N1CCN(c2ccccc2)CC1)C(=O)Nc1ccccc1F (stereo unspecified),inactive: 3.42%
4,CCN(CC)C(=O)Cn1ncc2c([nH]c3ccccc32)c1=O,inactive: -12.6%
5,COc1cccc(N2CCN(C(=O)c3ccc4nc(N5CCC(C)CC5)sc4c3)CC2)c1,inactive: -29.6%
6,CCOC(=O)c1cnc2ccc(C(=O)OC)cc2c1Nc1ccc(OCc2ccccc2Cl)cc1,inactive: -3.26%
7,CC(=O)Nc1cccc(-c2nnc(SCC(=O)c3cc([N+](=O)[O-])ccc3Cl)o2)c1,inactive: 10%
8,CCOc1ccc(NC(=O)CC2C(=O)N(c3ccc(OC)cc3)C(=O)N2CCC2=CCCCC2)cc1 (stereo unspecified),inactive: -7.69%
9,COc1ccc(C)cc1NC(=O)N(C(C)C)C1CCN(C(C)=O)CC1,inactive: -5.19%
10,Cc1ccc(N2CCN(c3nc4ccc(C(=O)c5ccccc5)cc4n4cnnc34)CC2)c(C)c1,inactive: -24%
11,COc1ccccc1Nc1nn2c(=O)c3ccc(C(=O)NCCc4ccccc4)cc3nc2s1,inactive: 11.4%
12,O=C(O)c1cc(-c2ccccc2)nn1Cc1ccccc1,inactive: 15.7%
13,COc1ccc(C(C)=O)cc1CSc1nc(Nc2ccc(F)c(F)c2)c2ccccc2n1,inactive: -17.1%
14,Cc1cc(C)cc(NC(=O)C(=O)NCCc2sc(-c3cccc(F)c3)nc2C)c1,inactive: 2.71%
15,Cc1ccn2c(Nc3ccccc3)c(-c3c[nH]c4ccccc34)nc2c1,inactive: -4.28%
16,CC(=O)Nc1ccc(NC(=O)c2ccc3c(c2)CCN3S(=O)(=O)c2ccc(C)cc2)cc1,inactive: 3.51%
17,CCOc1ccc(C(c2c(O)cc(C)n(Cc3ccco3)c2=O)N2CCN(C)CC2)cc1 (stereo unspecified),inactive: -18.2%
18,CC1CCN(C(=O)Cn2cc(SCC(=O)NCc3ccccc3)c3ccccc32)CC1,inactive: -24.7%
19,CCOc1ccc(-c2cn3c(n2)sc2cc(C(=O)NC(C)C45CC6CC(CC(C6)C4)C5)ccc23)cc1 (stereo unspecified),inactive: -2.73%
20,CCC(Sc1nnc(-c2ccc(F)cc2)c(-c2ccc(F)cc2)n1)C(=O)NC1CCCC1 (stereo unspecified),inactive: -24.2%
21,CCc1nnc(NC(=O)c2nc(SCc3cccc(C)c3)ncc2Cl)s1,inactive: 44.1%
22,O=S(=O)(c1ccccc1)n1nc(-c2ccco2)nc1NCc1ccccc1,inactive: -18.2%

row,SMILES,activation
1,Cc1cccc(-n2ncc3c(NCCOCCO)ncnc32)c1,inactive: 6.91%
2,O=C(CSc1nc2c([nH]c3ccccc32)c(=O)n1-c1ccccc1F)Nc1cccc(Cl)c1,inactive: -23.6%
3,CCC(=O)N1CCc2cc(S(=O)(=O)CCC(=O)Nc3cc(Cl)ccc3OC)ccc21,inactive: 1.92%
4,COc1cccc(N2CC(NC(=O)/C=C\c3ccccc3)CC2=O)c1 (stereo unspecified),inactive: -12.3%
5,Cc1cccc(Cn2c(CN3CCC(C(=O)NC(C)C)CC3)cc3ccccc32)c1,inactive: 17.9%
6,COc1ccc(CNC(=O)C2CCN(S(=O)(=O)c3cccc(-c4noc(C)n4)c3)CC2)cc1,inactive: -0.0452%
7,COc1ccc(C2C(C(=O)Nc3ccccc3)=C(C)Nc3nc(-c4ccc(Cl)cc4)nn32)cc1 (stereo unspecified),inactive: -5.18%
8,Cc1ccccc1CNCCCSc1nnnn1C,inactive: 1.47%
9,Cc1ccc(NC(=O)CSCc2cc(=O)c3ccccc3[nH]2)c(C)c1,inactive: 16%
10,CCOc1ccc(CNC(=O)c2cc3c(=O)oc4ccc(C)cc4c3s2)cc1,inactive: -7.15%
11,Cc1ccc(-n2c(=O)c3c(C)c(C(=O)N(C)C)sc3n(Cc3ccccc3C)c2=O)cc1C,inactive: -18.1%
12,COc1ccc(-c2cn3c(n2)sc2cc(C(=O)NCCCN4CCN(C)CC4)ccc23)cc1,inactive: -0.0473%
13,CCCOc1ccc(C2C(=O)N(C3CCCCC3)CC(=O)N2C2CCCCC2)cc1OC (stereo unspecified),inactive: -6.55%
14,O=C(COCc1cc(-c2ccc(F)cc2)on1)Nc1cccc(C(F)(F)F)c1,inactive: 5.43%
15,COc1ccc(Cn2c(CO)cnc2SCc2ccccc2)cc1,inactive: 48.1%
16,Cc1cccc(Nc2nc(-c3ccccc3)nc3ccccc23)c1,active: 110%
17,COCCNC(=O)c1ccc(Cn2c(SCC(N)=O)nc3ccccc3c2=O)cc1,inactive: -2.89%
18,O=S1(=O)OC(c2ccc(O)cc2)(c2ccc(O)cc2)c2ccccc21,inactive: -69.1%
19,Cc1cc(=O)n2nc(N3CCC(C(=O)Nc4ccc(Br)c(C)c4)CC3)sc2n1,inactive: 9.21%
20,COc1cccc(OCCSc2nc3ccccc3n2CC(=O)N2CCOCC2)c1,inactive: -7.41%
21,COc1ccc2c(CNC3CCC(C)CC3)c(C(=O)O)n(Cc3ccc(F)cc3)c2c1 (stereo unspecified),active: 91.1%
22,Cc1ccc(N(Cc2cccs2)C(=O)c2ccc(OC(C)C)cc2)cc1,inactive: -17.4%

row,SMILES,activation
1,CCOc1ccccc1C(=O)NCc1ccc2c(c1)CCN2C(=O)c1ccc(F)cc1,inactive: 1.03%
2,Cn1c(SCc2ccc(F)cc2)nc2ccc(C(=O)NCc3cccc(Cl)c3)cc21,inactive: -9.96%
3,CCN(C(=O)c1c(C)oc2ncnc(N3CCCCC3)c12)c1cc(C)ccc1C,inactive: -3.95%
4,CCOC(=O)c1ccccc1NC(=O)CSc1ccc(-c2sc(C)nc2C)nn1,inactive: 7.57%
5,COc1ccc(-c2noc(CN(C(=O)c3ccc(C)cc3C)C(C)C)n2)cc1,inactive: -2.11%
6,Cc1ccc(C(=O)NCCc2csc(-c3cccc(F)c3)n2)cc1C,active: 60.5%
7,CCOC(=O)c1cccc(NC(=O)COc2ccc3c(C)cc(=O)oc3c2)c1,inactive: -4.69%
8,CCOC(=O)c1cnc2c(ccc3ccccc32)c1Nc1ccccc1O,inactive: 10.7%
9,COc1ccc(C2CC(=O)Nc3c2c(C)nn3-c2nncc(-c3ccccc3)n2)c(OC)c1OC (stereo unspecified),inactive: 8.68%
10,COc1cc2nc(NCCc3cccc(C)c3)n3nc(-c4ccccc4)nc3c2cc1OC,inactive: 26%
11,CCOc1ccccc1C(=O)Nc1cccc(-c2nc3ccccc3s2)c1,inactive: -0.118%
12,Cc1cc(C)cc(NC(=O)NCc2noc3ccccc23)c1,inactive: -0.982%
13,CCC(=O)N1CCCc2cc(S(=O)(=O)N3CCC(C(=O)NC4CCC(C)CC4)CC3)ccc21 (stereo unspecified),inactive: -0.767%
14,O=C(OCc1cc(=O)n2nc(C3CC3)sc2n1)c1cccc(NC(=O)c2ccccc2Cl)c1,inactive: 1.84%
15,Cc1ccc(C)c(NC(=O)c2cnc(N3CCCC3)nc2C)c1,inactive: 3.04%
16,COc1ccccc1/C=C/c1nc(C#N)c(NCc2ccccc2)o1,inactive: -27.5%
17,COc1ccc(-c2cn3c(n2)sc2cc(C(=O)NCCc4ccccc4)ccc23)cc1,inactive: 10.2%
18,CCc1ccccc1N(CC)C(=O)c1cc2c(s1)-c1ccccc1SC2,inactive: 10.6%
19,Cc1cccc(CNC(=O)C2CCN(c3nn4cc(-c5ccc(F)cc5)nc4s3)CC2)c1,inactive: 6.12%
20,COc1ccc(-n2ncc(C(=O)NCc3cccs3)c2C2CCN(C(=O)OC(C)(C)C)CC2)cc1,inactive: -9.76%
